# From paper PMC4336329 (PLoS ONE, 2015)
# Among all 310,000 compounds or so, about 2,200 (0.71%) showed an effect of 50% or more. Effects have a minus sign here. This is one part of the list.
# Biological target: human ether-à-go-go-related gene (hERG) potassium channel (human, UniProt Q12809)
# Experiment: primary screen, population patch clamp on CHO cells stably expressing hERG
# human ether-à-go-go-related gene (hERG) potassium channel, sequence (Q12809 whole entry, looked up): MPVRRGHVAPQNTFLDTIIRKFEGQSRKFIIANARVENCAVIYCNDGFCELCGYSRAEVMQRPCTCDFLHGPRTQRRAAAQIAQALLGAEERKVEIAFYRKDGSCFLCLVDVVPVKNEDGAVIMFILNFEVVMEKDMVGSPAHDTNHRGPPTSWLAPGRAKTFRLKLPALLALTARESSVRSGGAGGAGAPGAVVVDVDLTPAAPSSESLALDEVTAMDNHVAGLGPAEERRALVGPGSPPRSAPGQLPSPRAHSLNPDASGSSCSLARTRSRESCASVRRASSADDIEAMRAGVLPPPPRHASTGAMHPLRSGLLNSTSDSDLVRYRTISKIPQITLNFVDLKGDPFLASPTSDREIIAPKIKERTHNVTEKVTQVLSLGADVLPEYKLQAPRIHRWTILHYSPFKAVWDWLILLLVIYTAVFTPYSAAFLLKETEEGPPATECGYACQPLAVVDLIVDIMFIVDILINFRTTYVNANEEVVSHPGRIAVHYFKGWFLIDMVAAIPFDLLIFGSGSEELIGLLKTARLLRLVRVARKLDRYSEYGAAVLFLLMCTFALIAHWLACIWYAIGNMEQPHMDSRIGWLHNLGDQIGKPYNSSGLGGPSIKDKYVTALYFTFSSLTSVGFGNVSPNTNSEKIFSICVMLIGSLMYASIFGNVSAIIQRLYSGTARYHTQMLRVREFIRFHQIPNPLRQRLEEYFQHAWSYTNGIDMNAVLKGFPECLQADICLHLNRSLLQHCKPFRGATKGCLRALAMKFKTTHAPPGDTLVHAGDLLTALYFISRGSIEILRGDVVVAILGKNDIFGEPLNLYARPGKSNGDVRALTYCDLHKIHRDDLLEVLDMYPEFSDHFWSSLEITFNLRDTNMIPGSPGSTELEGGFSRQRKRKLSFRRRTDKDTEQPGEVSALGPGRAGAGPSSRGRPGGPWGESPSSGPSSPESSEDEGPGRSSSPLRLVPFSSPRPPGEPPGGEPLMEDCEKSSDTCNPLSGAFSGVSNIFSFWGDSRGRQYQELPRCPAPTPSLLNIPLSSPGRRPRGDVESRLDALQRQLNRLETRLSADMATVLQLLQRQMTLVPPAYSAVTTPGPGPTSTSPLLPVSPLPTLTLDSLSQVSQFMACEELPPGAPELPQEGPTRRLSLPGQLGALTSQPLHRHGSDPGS
row,Structure (SMILES),"hERG current change (%, negative = inhibition) at 1uM [%]"
1,O=C(CSc1nnc(-c2cccnc2)n1CCc1ccccc1)N1CCCCC1,13.5
2,O=C(COC(=O)C1=COCCO1)NC(=O)c1ccc(OC(F)F)cc1,17.9
3,CCCn1nnc(NC(=O)c2ccc3c(c2)OCO3)n1,7.24
4,COc1ccc(/C=C2\SC(=S)N(CCC(=O)N(CCO)c3ccccc3)C2=O)cc1OC,13.1
5,CC(CC(=O)O)CC(=O)Nc1ccc(S(N)(=O)=O)cc1 (stereo not shown),9.04
6,O=C(NCCc1csc(-c2cccc(F)c2)n1)c1ccco1,10.3
7,CC1CCN(CC(C)OC(=O)c2ccc3c(c2)OCCO3)CC1.Cl (stereo not shown),3.75
8,O=C(CSc1nnc(-c2ccccn2)o1)Nc1ccccc1Cl,8.15
9,CCn1cc(C(=O)NCC(OC)OC)c(=O)c2cc(S(=O)(=O)N(C)C3CCCCC3)ccc21,9.43
10,Cc1cc(C)cc(OC2CCCCC2NS(=O)(=O)c2ccccc2)c1 (stereo not shown),2.99
11,O=C(Nc1nnc(-c2ccc(Cl)s2)o1)C1CC1,12.6
12,Cc1nnsc1C(=O)Nc1ccc(S(=O)(=O)N2CCCCC2)cc1,17.9
13,CCc1nc2c(sc3nc4c(cc32)COC(C)(C)C4)c(=O)n1CCN(CC)CC,5.26
14,COc1cccc(C(=O)N2CCN(C3CCCCC3)CC2)c1.O=C(O)C(=O)O,6.64
15,Cc1cc(OCC(=O)Nc2cc(-c3nn4c(C)nnc4s3)ccc2C)ccc1Cl,7.93
16,CCOC(=O)c1cnc2ccc(C)cc2c1N(C)Cc1ccccc1,4.62
17,CCN1CCc2ccccc2C1,13.8
18,O=C(CCC1COc2ccccc2O1)N1CCCC1 (stereo not shown),1.96
19,C[C@H](C(=O)CC(=O)OC(C)(C)C)[C@H](O)c1ccccc1,-14.6
20,O=C(C1CCCN(S(=O)(=O)c2cccs2)C1)N1CCc2ccccc2C1 (stereo not shown),3.54
21,CCOP(=O)(c1ccccc1)c1nc(-c2ccccc2C)oc1N1CCCCC1 (stereo not shown),8.78
22,Cc1cc(C)n2nc(SCC(=O)Nc3ccc(S(=O)(=O)N(C)C)cc3)nc2n1,-6.87
23,O=C(O)c1c[nH]ccc1=O,8.13

row,Structure (SMILES),"hERG current change (%, negative = inhibition) at 1uM [%]"
1,Cc1ccnc(NC(=O)c2cccc(NC(=O)c3ccccc3C)c2)c1,8.59
2,Cc1ccc(N=Cc2cc(Cc3ccccc3Cl)cc([N+](=O)[O-])c2O)c(O)c1,19
3,C1CC(CN2CCOCC2)CN(Cc2nc(CC3CC3)no2)C1 (stereo not shown),9.95
4,COc1ccc(CNC(=O)CCSCc2ccccc2C)cc1,4.42
5,O=C(NC1CCS(=O)(=O)C1)c1cccc(Br)c1 (stereo not shown),0.757
6,CCCCN(CC)C(=O)c1cc2c(=O)n3cccc(C)c3nc2s1,13.4
7,CS(=O)(=O)c1ccc(NC(=O)CCN2C(=O)NC3(CCCC3)C2=O)cc1,16.8
8,Cc1ccc(S(=O)(=O)NNC(=O)c2ccc3ccccc3n2)cc1,7.9
9,COc1cccc(-c2nc(CS(=O)(=O)CC(=O)NCCCN3CCOCC3)c(C)o2)c1,10.9
10,CC(=O)c1ccc(NC(=O)CN2CCN(c3ncccn3)CC2)cc1.O=C(O)C(=O)O,10.4
11,CN(Cc1ccccc1)C(=O)COC(=O)Cn1cnc2ccccc21,6.75
12,O=C(NCCS(=O)(=O)N1CCN(c2ccccc2F)CC1)C1CC(=O)N(c2ccc(F)cc2)C1 (stereo not shown),5.78
13,O=C(CSc1nnnn1C1CC1)Nc1cccc(S(=O)(=O)N2CCCC2)c1,7.08
14,Cc1csc(NC(=O)c2cc(C)on2)n1,9.84
15,CCC(=O)Nc1cccc(-c2nnc(-c3ccccc3)o2)c1,10.5
16,CCn1cc(C(=O)N2CCCc3ccccc32)c2cc(OC)c(OC)cc2c1=O,3
17,C/C(=N\NC(=O)c1ccc([N+](=O)[O-])cc1Cl)c1ccccc1,16.5
18,COc1ccc(Cn2c(C)nnc2-c2cnn(C)c2N)cc1OC,-2.29
19,CCOc1ccc(C(=O)O/N=C(\N)c2ccccn2)cc1OCC,9.6
20,c1ccc(COc2ccc(CN3CCN(c4ccccn4)CC3)cc2)cc1,10.1
21,O=C(Cn1c(CO)nc2ccccc21)Nc1ccc2c(c1)OCCCO2,5.09
22,c1ccc(CNc2nc3ccccc3[nH]2)cc1,5.57
23,O=C(Nc1ccccc1)C1COc2ccccc2O1 (stereo not shown),9.77

row,Structure (SMILES),"hERG current change (%, negative = inhibition) at 1uM [%]"
1,COc1ccc(N2CC(NS(=O)(=O)c3ccc4ccccc4c3)CC2=O)cc1OC (stereo not shown),15.1
2,COc1ccc(-n2nc(C(=O)NCC(=O)Nc3cc(OC)c(OC)c(OC)c3)c3ccccc3c2=O)cc1,18.7
3,COc1ccccc1-n1c(SCC(=O)OC(C)C)nc2cccnc21,7.63
4,Cc1cc(Nc2cc(C(=O)O)ccc2C)n2ncnc2n1,5.05
5,N/C(=N/O)c1cccn1Cc1ccccc1[N+](=O)[O-],18.5
6,Nc1nc2ccc(Cc3ccncc3)cc2s1,12.5
7,CCn1c(COc2ccc(Cl)cc2)nnc1SCc1ccc(C#N)cc1,-42.9
8,COc1cc(OC)cc(C(=O)N[C@H](C(=O)NCCc2ccc(S(N)(=O)=O)cc2)C(C)C)c1,11.7
9,Cc1ccc(NC(=O)c2cc([N+](=O)[O-])ccc2N2CCOCC2)cc1C,-5.84
10,CCC(C)N(C(=O)COC(=O)/C=C/c1ccc(O)c(OC)c1)C1CCS(=O)(=O)C1 (stereo not shown),13.7
11,O=C(Cn1ccc2ccccc2c1=O)NCCC(=O)Nc1cccnc1,15.5
12,CCCCNC(=O)C1CCC(CNS(=O)(=O)c2ccc(NC(C)=O)cc2)CC1 (stereo not shown),8.04
13,Cc1c(C(=O)NCc2cccnc2)oc2ccccc12,0.0118
14,CC1CCCCN1c1nc(-c2ccncc2)nc2ccccc12 (stereo not shown),5.83
15,COc1ccc(-c2nc3c(c4nnc(SC(C)C(=O)Nc5ccc(C)cc5)n24)COC(C)(C)C3)cc1 (stereo not shown),13.9
16,Cc1ccc(C)c(OCCSc2nnc(C)c(=O)[nH]2)c1,21.5
17,COCCOC(=O)C1=C(N)OC(C)=C(C(=O)OC)C12C(=O)Nc1ccccc12 (stereo not shown),14.5
18,O=C(O)CC1SC(=O)N(Cc2ccccc2)C1=O (stereo not shown),12.3
19,COc1ccc(S(=O)(=O)N2CCC(C(=O)N3CCCCC3)CC2)cc1OC,4.02
20,CCN(CC)S(=O)(=O)c1ccc(NC2CCCc3ccccc32)nc1 (stereo not shown),11.1
21,COc1ccc(-c2cn(-c3ccccc3)c3[n+]2CCS3)cc1,-0.559
22,COC(=O)c1cccc(OCC(O)Cn2cnc3cc(C)c(C)cc32)c1 (stereo not shown),-1.69
23,Cc1cccc(NC(=O)c2ccc3nccnc3c2)c1C,15.6

row,Structure (SMILES),"hERG current change (%, negative = inhibition) at 1uM [%]"
1,CC(=O)N1CCc2cc(S(=O)(=O)NCCC(=O)NCCc3ccccc3)ccc21,14
2,COc1ccc(NC(=O)C(CC(=O)O)Cc2ccc(Br)cc2)cc1 (stereo not shown),11.9
3,O=C(CC(SCc1ccco1)c1ccc(O)cc1)c1cccs1 (stereo not shown),-0.697
4,CC(C)C1CC(c2ccccc2)(C(CN)CO)CCO1.O=C(O)C(=O)O (stereo not shown),15.2
5,C/C(CC(=O)Nc1cc(C)ccn1)=N\NC(=O)c1ccccc1C,3.57
6,CCOC(=O)c1nnn(-c2nonc2-c2ccccc2)c1C,6.8
7,COc1cc(C(=O)OCC(=O)c2cc(C)n(C)c2C)cc(OC)c1OC,8.25
8,COc1cc(C(F)(F)F)c(C(=O)NCc2cccc(Cl)c2)cn1,12.6
9,CCOn1c(=O)c(=O)n(OC)c2ccccc21,4.7
10,Cc1cc2c(=O)n(Cc3ccco3)c(SCC(=O)NCc3ccco3)nc2s1,-0.915
11,CC1CC(C)CN(CCCNC(=O)CN2C(=O)COc3ccc(S(=O)(=O)N4CCOCC4)cc32)C1 (stereo not shown),17.7
12,COc1ccc(C(=O)NNC(=O)OC(C)(C)C)cc1,16.4
13,CC(=O)c1c(C(C)=O)c(C)n(-c2ccc(C(=O)O)cc2)c1C,11.2
14,CCOc1ccc2nc(SCc3ccc(F)cc3)sc2c1,2.95
15,Nc1nnc(SCC(=O)NCC(=O)Nc2ccc(F)c(F)c2F)s1,8.53
16,CCCC(C1=C(O)CC(C)(C)CC1=O)C1C(=O)CC(C)(C)CC1=O (stereo not shown),12
17,O=C(NC1CCC(=O)N(CCOc2ccccc2)CC1)OCc1ccccc1 (stereo not shown),-4.57
18,CC(=O)N1CCC(=NNc2ccnc3cc(Cl)ccc23)CC1,-1.64
19,CC1CCc2nn(CC(=O)NC3CCCC3)cc2C1 (stereo not shown),7.56
20,CCOc1ccc(N2CC(C(=O)Nc3ccc(S(=O)(=O)Nc4ncccn4)cc3)CC2=O)cc1 (stereo not shown),4.12
21,COCCCNc1nc(-c2ccncc2)nc2ccccc12,-0.358
22,CCCCNC(=O)NCc1cnn(C)c1C,-10.6
